24 molecules from ChEMBL document CHEMBL4888484, “Replenishing the malaria drug discovery pipeline: Screening and hit evaluation of the MMV Hit Generation Library 1 (HGL1) against asexual blood stage Plasmodium falciparum ,using a nano luciferase reporter read-out” (2022) can be followed below.

In all, about 150,000 compounds went through this assay and about 540 (0.36%) showed an effect of 50% or more. Some of the results follow.

This test has as its system Plasmodium falciparum. The test can be described thus: Primary screen in NF54 nanoGlo assay, in single point, at 2uM, 72h; a lower Z score goes with more inhibition. Format: functional, Erythrocyte. The note with it: timepoint 72 hour.
As to `O=C(Cn1cnc2nc(N3CCCC3)sc2c1=O)NCc1ccccc1Cl`, the “% Inhibition” value is recorded as -9% and the Z score stood at 1.42.
Turning to `Cc1nc(-c2ccccc2NC(=O)Cn2cccn2)cs1`, the “% Inhibition” value is listed as -10% and the Z score came out at 1.84.
Regarding `O=C(NC[C@H]1CCCO1)C1=COCCO1`, the “% Inhibition” value is -12% and the Z score was determined as 1.27.
Take `Cc1ccccc1C(=O)NC(C(C)C)C(C)C`: the “% Inhibition” value was -9% and the Z score is 1.62.
In the same order, the values of `O=S1(=O)N=CN(c2ccc(Oc3ccccc3)cc2)c2ncccc21` are 2% and -0.29.
As to `COC(=O)C(C)(C)CNC(=O)Nc1ccc2c(c1)N(C)CCO2`, the “% Inhibition” value is -9% and the Z score is 1.13.
As to `Fc1cc(Cl)c(NCc2nnc(C3CCC3)o2)c(Cl)c1`, the “% Inhibition” value is listed as -2% and the Z score is listed as 0.22.
In the same order, the values of `CCOc1ncccc1C(=O)Nc1nc2c(s1)C[C@@H](NC(=O)OC(C)(C)C)CC2` are -12% and 1.14.
Turning to `CN(CC(=O)NCc1ccc2c(c1)OCO2)Cc1cnn(C)c1`, the “% Inhibition” value is recorded as -8% and the Z score was 1.23.
As for `CC(=O)N[C@@H]1C[C@H](CC(C)C)O[C@H](c2cccc3c(C)c(C)[nH]c23)C1`, the “% Inhibition” value is recorded as -1% and the Z score is on record as 0.11.
For `CCc1ccc(C(=O)N2CCC3(CC2)[C@H](O)C[C@@H]3OC)[nH]1` the same measures were -9% and 1.31.
As for `O=C(c1ccc2nccnc2c1)N1CCC(N2C(=O)COC2=O)CC1`, the “% Inhibition” value is -26% and the Z score came to 4.94.
In the same order, the values of `Cc1ccc(-c2cc(C(=O)NCc3ccncc3)no2)cc1F` are -14% and 2.6.
In the case of `CC(C)CC(=O)N1CCc2nc(N)sc2C1`, the “% Inhibition” value came to 8% and the Z score is recorded as -1.08.
For the molecule `Cn1cc(C(=O)N2CCCc3cc(Cl)cc(Br)c32)nn1`, the “% Inhibition” value came to 7% and the Z score is -0.99.
In the same order, the values of `O=C(Cn1nnc2ccccc21)NC[C@H]1CCOC1` are 5% and -0.88.
For `O=C(NCc1nccn1CCCc1ccccc1)c1ccc(O)nc1` the same measures were -11% and 1.21.
In the same order, the values of `Cc1noc(C2(c3ccc(Cl)cc3)CCOCC2)n1` are -8% and 1.56.
`O=C(c1ccnc(C2CC2)n1)N(Cc1ccccc1)C1CCNCC1`: the “% Inhibition” value is on record as 14% and the Z score is listed as -1.8.
Consider `Cc1nonc1CC(=O)N1CC[C@H]1c1ccc(F)cc1`, for which the “% Inhibition” value was -8% and the Z score turned out to be 1.31.
For `COc1ccc(NS(=O)(=O)c2ccc(-c3[nH]nc(C)c3C)o2)cc1`, the “% Inhibition” value is reported as -4% and the Z score came to 0.62.
In the same order, the values of `CO[C@H]1CC[C@@]2(OC)CCN(C(=O)Cc3c[nH]c4ccccc34)[C@H]2C1` are 2% and -0.49.
In the same order, the values of `CCc1ccccc1N1C(=O)N[C@H](c2ccc(Cl)cc2Cl)C1=O` are -8% and 1.24.
In the same order, the values of `O=C(Nc1cccnc1)N1CC2(CC2)c2ccccc21` are -10% and 1.21.

Usually % Inhibition stands for the change of the read-out against control, counted positive when it falls.
